Measured values as given in the supplement of paper PMC3334620.
Whole data set: some 33,000 sequences, median “E-score (-0.5 to 0.5)” near -0.056, cut for the highest 2% near 0.38. The list shows a part of the results.

These sequences were tested against Stb4 (UniProt P50104) (assay: PBM E-score (8-mer binding enrichment) (E-score (-0.5 to 0.5)); higher = stronger / more preferred TF binding; most listed sequences are background and not binding sites). Conditions: protein concentration: 200 nM; construct: GST-DNA-binding domain.
Method in brief: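 Yeast transcription factors, full-length or as DNA-binding domains, were expressed with a GST tag using PURExpress in vitro transcription/translation. At about 100-200 nM they were applied to universal all-10-mer Agilent arrays, double-stranded by primer extension on fresh or once-stripped slides. Fluorescent anti-GST detected bound protein, and masliner normalised the scans. E-scores for ungapped eight-base words, pooled with reverse complements, came from the Universal PBM Analysis Suite.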

Sequence	PBM E-score
TGGACTAA	-0.242
ACACACGT	-0.115
AGCAAAAA	-0.0253
CTACTTAA	-0.292
CATTCAAG	-0.00988
AGTCCTAG	-0.224
CCTCCGTA	0.145
GAGTATGC	0.0767
GACACGTA	-0.0957
GGCTCACA	-0.0527
AGCGTCTC	-0.0427
AAGGACCG	0.067
CAGCGTAG	-0.134
CATGTCGG	0.296
CAGTCGTC	-0.182
CATCGAGC	-0.0405
CTCCGGTC	0.255
GAATGGCC	0.0908
CCTCCTGA	-0.208
ATACAGTA	0.0496
CCGGGCAG	0.23
CAGCCGCG	0.151
ACTTGACC	-0.131
ACCGTGAC	-0.0354

Sequence	PBM E-score
CGTGGTAC	-0.102
AAAAATGG	0.042
TCCATACA	-0.143
TATTTCCA	0.0479
AAGCGTTG	-0.263
AGGAGAGC	-0.227
CTATAGCA	-0.107
CGGAGCCC	0.162
AGAAGACA	-0.259
AGCGTCCG	0.0714
AGTGTGAA	-0.0503
GAATGTTA	0.192
AAAGAGAC	-0.0454
ATGCATCG	0.18
ACGGCGAC	-0.0191
AATTTAGG	0.0189
AAGCATAA	0.0475
GATGCTAA	0.113
ACTCCGGC	0.281
ATCGTAGC	-0.203
GACAACTA	-0.307
AGACATAC	-0.107
AGAGGCAT	0.0561
CCAGCAAC	0.0695

Sequence	PBM E-score
CGGATTTA	0.318
ATGAGATA	-0.0324
CCGGTCCG	0.389
CCCGTCTC	0.0964
TCCGAGGA	0.453
GGACTTAC	0.0513
CTACCCTC	-0.0598
ACCAGCAA	0.0522
ACGAGCCT	-0.13
AGCTAGAC	-0.132
AGCGTATC	-0.153
CGTAGGCC	-0.117
GCCCTCGA	-0.216
GATTGGCA	-0.219
TCAATCCA	-0.077
ATGGGTTG	-0.00734
CTAAGCAG	-0.0836
GCACCCAA	0.128
GTCATGTA	-0.11
GCGATCAA	-0.216
GACAATTA	-0.0527
ACGAGGCG	-0.0457
CCGAGGAG	0.393
CGGAGTAG	0.244

Sequence	PBM E-score
AGATAGCT	-0.0191
TGCTCACA	-0.292
AGTGTTTC	-0.113
AGTTGAAC	-0.13
AAGAATAC	-0.0146
ATACTCGG	0.374
GCAGGCGC	-0.0991
GCGCACGC	-0.0384
ATTCGAAC	-0.0175
GTCGGGGA	0.225
GACTCTGA	-0.0541
TGGATGAA	-0.185
CGCCCCCG	0.181
ACTTACGC	0.0071
AAGGCCCC	0.00627
ACTGTGTC	-0.148
ACGAACAA	0.079
AATTAGGG	-0.0259
CGGGGACG	0.159
AGTGTAAC	-0.154
GAAGAATA	-0.0763
GCCACACA	0.0524
